Laboratory results taken from PubChem BioAssay AID1159614 (National Center for Advancing Translational Sciences (NCATS), 2016).
Hit rate of the full screen: of about 45,000 compounds, about 65 (0.1%) were called active. Calls follow the shape of the dose curve; as a rule, active = well fitted activation curve with a large enough effect; inconclusive = small, poorly fitted or top-dose-only effect; inactive = no such curve, though single readings can be large or run the other way. The list shows a part of the results.

molecular target: Galactocerebrosidase (Homo sapiens) (UniProt P54803); test: A Novel Cell-Based Assay to Identify Small Molecules for B -Galactocerebrosidase; settings: 145M-Twi-hGALC-G270D cells (Twitcher mouse brain line with human GALC G270D), HMU-beta-Gal fluorescence, 48 h; series mostly up to 57.5 µM; activation: at the top concentration; also: 0% is about no effect; nearly all actives have a fitted effect of over 65% in size
Sequence of UniProt P54803 (P54803 whole entry, looked up): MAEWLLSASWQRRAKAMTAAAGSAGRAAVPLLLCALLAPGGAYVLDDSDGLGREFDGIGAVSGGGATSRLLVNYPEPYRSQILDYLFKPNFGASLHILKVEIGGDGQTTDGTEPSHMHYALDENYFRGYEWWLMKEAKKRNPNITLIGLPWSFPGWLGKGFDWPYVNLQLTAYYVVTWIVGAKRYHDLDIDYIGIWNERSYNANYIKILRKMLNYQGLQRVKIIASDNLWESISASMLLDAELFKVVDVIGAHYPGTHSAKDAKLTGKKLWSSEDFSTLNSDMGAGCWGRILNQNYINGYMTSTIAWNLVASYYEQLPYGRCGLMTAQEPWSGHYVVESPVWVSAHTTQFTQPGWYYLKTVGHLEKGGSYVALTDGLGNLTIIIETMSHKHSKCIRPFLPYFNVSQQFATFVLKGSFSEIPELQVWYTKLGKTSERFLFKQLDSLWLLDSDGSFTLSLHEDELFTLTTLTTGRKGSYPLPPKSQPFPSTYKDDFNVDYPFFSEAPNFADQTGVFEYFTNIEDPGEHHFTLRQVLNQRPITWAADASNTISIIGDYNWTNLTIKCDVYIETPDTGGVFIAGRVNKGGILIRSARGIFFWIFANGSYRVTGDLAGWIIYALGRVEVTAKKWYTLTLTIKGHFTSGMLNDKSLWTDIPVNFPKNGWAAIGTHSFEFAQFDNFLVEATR
Method in brief: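 Fluorogenic HMU-b-Gal hydrolysis (0.1 mM final, pH 5.2 citrate-phosphate with 1 mg/mL sodium taurocholate; carbonate stop buffer) measures mutant GALC activity after compound treatment of live 145M-Twi Twitcher brain cells stably carrying human GALC-G270D, with wild-type GALC line alongside; activation sought.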

activation, inactive:
Cc1ccc(CN2CCCn3nc(C(=O)NCc4ccccc4Cl)cc3C2=O)cc1 -32.8%, COc1cc(NS(=O)(=O)c2ccc(N)cc2)nc(C)n1 -16%, CC(=O)c1cccc(N(C(=O)Cn2nnc3ccccc32)C(C(=O)NCc2ccccc2)c2ccc(F)cc2)c1 (stereo unspecified) -16.2%, CCCCNC(=O)CN1C(=O)CSc2ccc(S(=O)(=O)N3CCC(C)CC3)cc21 -1.35%, CCOC(=O)c1ccc(NC(=O)C2Cc3ccccc3C(=O)O2)cc1 (stereo unspecified) -5.53%, Clc1cccc(N2CCN(c3ncnc4c3nc3n4CCCC3)CC2)c1 1.81%, Cc1cc(=O)n(-c2ccccc2)n1C -7.31%, Cc1cccc(-c2noc(CNC(=O)c3ccco3)n2)c1 -4.97%, Brc1ccc(CNCCCSc2nnnn2-c2ccccc2)cc1 -8.89%, COc1ccccc1-c1nn2c(=O)cc(CN3CCN(S(=O)(=O)c4ccc(C)cc4)CC3)nc2s1 4.17%, Cc1ccc(-n2nnnc2CNC(=O)c2ccc(F)cc2)cc1C -10.9%, COc1cccc2cc(-c3cn4c(n3)sc3cc(F)ccc34)c(=O)oc12 -17.2%, CC(=O)N(Cc1cccnc1)c1nc2ccc(F)cc2s1 -10%, COc1ccc(C(=O)NCC(c2cccs2)S(=O)(=O)c2ccc(F)c(C)c2)cc1 (stereo unspecified) -6.84%, CC(=O)Nc1ccc(C)cc1-c1nc2ccccc2n(CC(=O)c2ccc(Cl)cc2)c1=O -3.83%, Cc1c(Cl)cccc1NC(=O)Cn1nc(C(F)(F)F)c2c1CCC2 1.39%, COc1ccc(OC)c(CNC(=O)c2ccccc2NC(=O)c2nsc3ccccc23)c1 -11.3%, Cc1ccc(N2CCn3c2nc2c3c(=O)n(CCCc3ccccc3)c(=O)n2C)cc1 -2.04%, Cc1cc(C)c(NC(=O)Cn2c(=O)n(CCc3ccccc3)c(=O)c3ccccc32)c(C)c1 -7.42%, CCOc1ccccc1C(=O)N1CCN(CCc2ccccn2)CC1 -5.48%, Cc1ccc(C2=Nc3ccccc3N(CC(=O)Nc3ccccc3C)C(=O)C2)cc1C -30.6%, Cc1ccc(CNC(=O)NC2COc3ccccc3C2)cc1 (stereo unspecified) -14.9%, Cc1onc(-c2ccccc2Cl)c1C(=O)Oc1ccc(Br)cc1 -5.62%, Cn1cc(S(=O)(=O)N2CCCCCC2)cc1C(=O)NCc1ccc(Cl)cc1 3.27%, CC1=C(C(=O)Nc2ccccc2)C(c2cccc(O)c2)n2nc(-c3ccccc3Cl)nc2N1 (stereo unspecified) -8.97%, CCN1CCOC(=O)C1CC(=O)Nc1cccc(OC)c1 (stereo unspecified) -22.2%, Cc1cc(C)n(-c2nc3ccccc3nc2Nc2cccc(C(=O)NCCc3ccccc3)c2)n1 -7.39%, COc1ccc(CCNC(=O)c2c(C)oc3nc(C)nc(N4CCOCC4)c23)cc1OC 4.73%, Cc1ccc(NC(=O)C2CCCN(S(=O)(=O)c3cccc4cccnc34)C2)c(Br)c1 (stereo unspecified) -1.24%, CCN(c1ccc(OC)cc1)S(=O)(=O)c1nnc(NC(=O)COc2ccc(F)cc2)s1 -35.8%, CC(C)CC(=O)NCC(c1ccc2c(c1)OCO2)N1CCN(c2ccccc2F)CC1 (stereo unspecified) -11.8%, C#CCn1c(/C=C/c2ccc(Cl)cc2)nc2ccccc21 -5.28%, CCCN(CCc1cccs1)[C@H]1CCc2c(O)cccc2C1 -17.1%, CCOC(=O)c1ccc(NC(=O)Nc2ccc3snnc3c2)cc1 -3.81%, Cc1cccc(-c2nc(SCC(=O)NCC3CCCO3)c3c(=O)n(C)c(=O)n(C)c3n2)c1 (stereo unspecified) -25.9%, Cc1ccccc1N(C)C(=O)c1noc2c1COc1ccccc1-2 -1.33%, CCC(CC)C(=O)Nc1ccc(C(=O)OCc2cc(=O)n3nc(C4CC4)sc3n2)cc1 -21.4%, CCC(=O)Nc1ccc(C)cc1-c1nc2ccccc2n(C(C)C(=O)Nc2ccccc2CC)c1=O (stereo unspecified) -4.71%, CN1C(=O)c2ccccc2Sc2ccc(NC(=O)Cc3c(F)cccc3Cl)cc21 6.83%, O=C(CCn1c(=O)c2cccn2c2cccnc21)NCc1ccccc1Br -11.2%, CCOc1ccc(-c2noc(CSc3nnc(-c4ccccc4)n3-c3ccccc3)n2)cc1 -21.5%, CCC(C(=O)N1CCN(c2cc(Cl)ccc2C)CC1)n1nc(C)c2sc3ccccc3c2c1=O (stereo unspecified) -7.92%, O=C(NCc1ccccc1Cl)c1cccn1-c1nnc(N2CCCCC2)s1 -18%, Cc1ccc(N(C)S(=O)(=O)c2ccc3c(c2)C(C)(C)C(=O)N3C)cc1C -1.52%, CC(=O)c1ccccc1NS(=O)(=O)c1cc2c(cc1C)NC(=O)CO2 -8.43%, CCN(CC)CCCNC(=O)CCCn1c(=O)[nH]c2ccc(Br)cc2c1=O 2.28%, Cc1ccc(-n2nc(C(=O)N3CCN(c4ccccc4F)CC3)c3c4ccccc4n(C)c3c2=O)cc1 -15%, COc1cccc(CNC(=O)CN2N=C(c3ccc(C)cc3)CCC2=O)c1 -15%, COCCCNC(=O)Cn1c(=O)nc(-c2ccccc2)c2ccccc21 -8.2%, Nc1ncn([C@H]2C[C@H](O)[C@@H](CO)O2)c(=O)n1 -11.6%, CC(CNC(=O)c1nnc(Cc2ccc(F)cc2)o1)c1ccccc1 (stereo unspecified) 4.57%, Cc1ccc(-n2nc3c(=O)n(CC(=O)NCCC(C)C)nc(C)c3c2C)cc1 -5.39%, COc1cc2ncc(C(=O)c3ccc(C)cc3)c(N3CCCCC3)c2cc1OC -13.3%, COc1ccc(CNCCC(c2ccc3c(c2)OCO3)c2ccccc2OC)cc1 (stereo unspecified) -8.27%, COc1cccc(NC(=O)CSc2nccn2C2CCCC2)c1 -7.53%, C[C@@H](c1ncncc1F)C(O)(Cn1cncn1)c1ccc(F)cc1F (stereo partly specified) -16.5%, O=C(Cn1cc(S(=O)(=O)Cc2cccc(Cl)c2)c2ccccc21)Nc1ccccc1Cl -7.39%, COc1ccc(Cn2cc(C(=O)c3ccc(C)c(C)c3)c(=O)c3ccccc32)cc1 -13.1%, CCCCC12CN3CC(C)(CN(C1)C3c1ccc(O)c(OC)c1)C2=O (stereo unspecified) -21.4%, Cc1cccn2c(=O)c(C(=O)NCCc3ccccc3)cnc12 -6.39%, CCOc1ccc(CCNC(=O)c2cc(C)nc3c2c(C)nn3-c2cccc(F)c2)cc1 -10.4%, CC(C)(C(=O)c1cccnc1)c1cccnc1 -23.5%, Cc1ccc(F)cc1NC(=O)Cn1c(C)cc(C)c(C#N)c1=O -20.1%, CC1CCN(c2nc3ccc(C(=O)NCc4ccccc4Cl)cc3s2)CC1 -15%, O=C(NC1CCCC1)c1ccc2c(c1)N(Cc1ccccc1)C(=O)c1ccccc1S2 -4.7%, Cc1ccc(S(=O)(=O)c2nnn3c2nc(NCCc2ccccc2)c2sccc23)cc1 -9.04%, O=C(NCc1cccc(Br)c1)c1ccc(NC(=O)N2CCCCc3ccccc32)cc1 3.78%, COc1ccc(N2CCN(Cc3nc4c(c(=O)[nH]c(=O)n4C)n3CC(C)C)CC2)cc1 11.5%, CCc1ccc(S(=O)(=O)c2cn(Cc3ccccc3F)c3cc(OC)c(OC)cc3c2=O)cc1 -8.96%, Cc1c(C)c2c(c(C)c1OC(=O)CCC(=O)OCCO)CC[C@@](C)(CCC[C@H](C)CCC[C@H](C)CCCC(C)C)O2 -0.0937%, Cn1c(=O)oc2cc(S(=O)(=O)N3CCCC(C(=O)NCCc4ccccc4)C3)ccc21 (stereo unspecified) -6.9%, CC(=O)c1ccc(NS(=O)(=O)c2ccc3[nH]c4c(c3c2)CCCC4)cc1 -16.9%, Cc1ccccc1C(=O)Nc1c(C)nc2ccccn2c1=O -2.04%, Cc1ccc(CNC(=O)c2c[nH]n3c(=O)c(Cc4ccc(Cl)cc4)c(C)nc23)cc1 7.17%, Cc1cccc(NC(=O)CS(=O)(=O)c2cccc3nsnc23)c1 -7.48%, Cc1cc(S(=O)(=O)NCC(c2ccco2)S(=O)(=O)c2cccs2)ccc1F (stereo unspecified) -10.4%, Cc1ccc(CCNC(=O)c2c3c(nc4ccccc24)C(=O)N(C2CCCCC2)C3)cc1 -6.13%, CCOc1ccc(C2c3[nH]c4ccccc4c3CCN2C(=O)CSCc2ccc(F)cc2)cc1 (stereo unspecified) -6.2%, O=C(NCCc1ccccc1)c1nn(-c2ccc(F)cc2)nc1CO -1.82%, Cc1cccc(CNC(=O)c2ccc3nc(Cc4ccccc4)oc3c2)c1 -22.7%, COc1ccc(NC(=O)CSc2nnc(NC(=O)NC3CCCCC3)s2)cc1OC -9.54%, Cc1coc2cc3oc(=O)c(CC(=O)NCc4cccc(Cl)c4)c(C)c3cc12 2.41%, Cc1ccc(CNC(=O)c2c(-c3ccccc3Cl)noc2C)o1 -8.5%, CCOc1ccc(CCNC(=O)CCCc2nnc3n(CC)c(=O)c4sccc4n23)cc1OCC 0.884%, Cc1cccc(NC(=O)COc2ccc(-c3nn(C)c(=O)c4ccccc34)cc2)c1 -1.93%, Cc1ccc(NC(=O)Cn2c(=O)n(Cc3nc(-c4ccccc4)no3)c(=O)c3ccccc32)cc1C -9.57%, CCOc1ccc(NC(=O)CSc2nnc(-c3ccc(OCC)cc3)o2)cc1 -11.6%, COC(=O)c1ccccc1NC(=O)CSc1nc(=O)cc(N)n1-c1ccccc1 -10.5%, CN1CC(=O)NC1=N -17.3%, COc1ccc(CNC(=O)Nc2ccc3c(c2)N(C)C(=O)c2ccccc2S3)cc1OC -6.29%, COc1cc(OC)c(NC(=O)CN2CCCN(Cc3ccccc3C)S2(=O)=O)cc1Cl 3.13%, Cc1cccc(NC(=O)CCn2cnnn2)c1C -0.341%, CCC(=O)N1c2ccccc2CC1C(=O)NCc1ccccc1Cl (stereo unspecified) -20.9%, COc1cc(OC)c(NC(=O)CCc2c(C)nc3ncnn3c2C)cc1Cl 24.5%, CCn1c(CN2CCC(C)CC2)nc2cc(NC(=O)COc3ccc(Cl)c(C)c3)ccc21 -5.42%, COc1cccc(N2CCN(C(=O)c3cc4cc5cc(C)ccc5nc4s3)CC2)c1 -16%, CN(Cc1ccccc1)c1ccc(-c2nc(-c3ccccn3)no2)cc1[N+](=O)[O-] -3.61%, CCc1ccc(-n2c(SCc3ccccc3Cl)nc3[nH]ncc3c2=O)cc1 -1.83%, COc1ccc(-c2nc(CSCC(=O)NCCc3ccccc3)c(C)o2)cc1 1.73%, O=C(NC1(C(F)(F)F)C(=O)Nc2c1c(=O)[nH]c(=O)n2-c1ccc(Cl)cc1)c1ccccc1F (stereo unspecified) 0.774%, COc1ccc(Cn2cc(S(=O)(=O)c3ccc(Cl)cc3)c(=O)c3cc4c(cc32)OCO4)cc1 -13.3%
